Source: US20180305451A1 (COMPUGEN, published 2018)

T1: human HIDE1-flag (human, UniProt A8MVS5 20-230)
T1 construct: Over-expressed on HEK293, SK-MEL-5, CHO-S and CHO-S OKT3 cells (pMSCV or pcDNA3.1); whole cell extracts in WB; Entry includes the signal peptide; also called hHIDE1 Flag
T1 sequence: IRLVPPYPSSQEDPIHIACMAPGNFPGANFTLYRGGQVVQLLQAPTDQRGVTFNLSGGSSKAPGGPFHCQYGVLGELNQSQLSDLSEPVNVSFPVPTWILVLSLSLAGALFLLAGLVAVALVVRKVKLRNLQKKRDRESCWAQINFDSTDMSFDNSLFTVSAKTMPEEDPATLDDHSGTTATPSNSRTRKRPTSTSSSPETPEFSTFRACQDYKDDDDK


Columns and labels:
[1] = molecular target: T2, HIDE1_HH-1 (Human ECD + human IgG1 Fc mutated C220S at hinge), without SP (human); assay: BLI Octet RED384, bivalent Fab-A-FH
T2 construct: Batch #280 in the Serotec and phage display work; also called HIDE1 hECD-hIg; HIDE1 (H:H) recombinant Fc fusion protein

human HIDE1-flag = molecular target: T1, human HIDE1-flag; assay: FACS, HEK293 human HIDE1 Flag cells vs HEK293 empty vector, goat anti-human IgG F(ab')2-PE

Kd [1]	koff [1]	FACS analysis (GeoMean fold) human HIDE1/empty vector (human HIDE1-flag)	Binder
0.02 nM	2.65e-05 s⁻¹	130 fold	αhHIDE1_AbD25755.1_Ser_Fab (Fab, Fab-A-FH format: the Fd chain carries bacterial alkaline phosphatase (which dimerises it, making the Fab bivalent), then FLAG and His6; all of these are in the letters., Serotec HuCAL Fab-A-FH; also called Ab333) heavy: QVQLVQSGAEVKKPGSSVKVSCKASGGTFSSYAISWVRQAPGQGLEWMGGIVPKFGTAYYAQKFQGRVTITADESTSTAYMELSSLRSEDTAVYYCARENLVYSAIAIWGQGTLVTVSSASTKGPSVFPLAPSSKSTSGGTAALGCLVKDYFPEPVTVSWNSGALTSGVHTFPAVLQSSGLYSLSSVVTVPSSSLGTQTYICNVNHKPSNTKVDKKVEPKSEFKAEMPVLENRAAQGDITTPGGARRLTGDQTAALRDSLSDKPAKNIILLIGDGMGDSEITAARNYAEGAGGFFKGIDALPLTGQYTHYALNRKTGKPDYVTSSAASATAWSTGVKTYNGALGVDIHEKDHPTILEMAKAAGLATGNVSTAELQDATPAALVAHVTSRKCYGPSATSEKCPGNALEKGGKGSITEQLLNARADVTLGGGAKTFAETATAGEWQGKTLREQAQARGYQLVSDAASLNSVTEANQQKPLLGLFADGNMPVRWLGPKATYHGNIDKPAVTCTPNPQRNDSVPTLAQMTDKAIELLSKNEKGFFLQVEGASIDKQDHAANPCGQIGETVDLDEAVQRALEFAKKEGNTLVIVTADHAHASQIVAPDTKAPGLTQALNTKDGAVMVMSYGNSEEDSQEHTGSQLRIAAYGPHAANVVGLTDQTDLFYTMKAALGLKGAPDYKDDDDKGAPHHHHHH light: DIQMTQSPSSLSASVGDRVTITCRASQDISNWLNWYQQKPGKAPKLLIYGASSLQSGVPSRFSGSGSGTDFTLTISSLQPEDFATYYCQQVTSTPFTFGQGTKVEIKRTVAAPSVFIFPPSDEQLKSGTASVVCLLNNFYPREAKVQWKVDNALQSGNSQESVTEQDSKDSTYSLSSTLTLSKADYEKHKVYACEVTHQGLSSPVTKSFNRGEA
0.03 nM	1.72e-05 s⁻¹	107 fold	αhHIDE1_AbD25760.1_Ser_Fab (Fab, Fab-A-FH format: the Fd chain carries bacterial alkaline phosphatase (which dimerises it, making the Fab bivalent), then FLAG and His6; all of these are in the letters., Serotec HuCAL Fab-A-FH) heavy: QVQLVQSGAEVKKPGSSVKVSCKASGGTFSDYAINWVRQAPGQGLEWMGGIIPNFGTANYAQKFQGRVTITADESTSTAYMELSSLRSEDTAVYYCARGMRSLGGLSYYFDLWGQGTLVTVSSASTKGPSVFPLAPSSKSTSGGTAALGCLVKDYFPEPVTVSWNSGALTSGVHTFPAVLQSSGLYSLSSVVTVPSSSLGTQTYICNVNHKPSNTKVDKKVEPKSEFKAEMPVLENRAAQGDITTPGGARRLTGDQTAALRDSLSDKPAKNIILLIGDGMGDSEITAARNYAEGAGGFFKGIDALPLTGQYTHYALNRKTGKPDYVTSSAASATAWSTGVKTYNGALGVDIHEKDHPTILEMAKAAGLATGNVSTAELQDATPAALVAHVTSRKCYGPSATSEKCPGNALEKGGKGSITEQLLNARADVTLGGGAKTFAETATAGEWQGKTLREQAQARGYQLVSDAASLNSVTEANQQKPLLGLFADGNMPVRWLGPKATYHGNIDKPAVTCTPNPQRNDSVPTLAQMTDKAIELLSKNEKGFFLQVEGASIDKQDHAANPCGQIGETVDLDEAVQRALEFAKKEGNTLVIVTADHAHASQIVAPDTKAPGLTQALNTKDGAVMVMSYGNSEEDSQEHTGSQLRIAAYGPHAANVVGLTDQTDLFYTMKAALGLKGAPDYKDDDDKGAPHHHHHH light: DIQMTQSPSSLSASVGDRVTITCRASQSINSYLNWYQQKPGKAPKLLIYAASSLQSGVPSRFSGSGSGTDFTLTISSLQPEDFATYYCQQYIHYPITFGQGTKVEIKRTVAAPSVFIFPPSDEQLKSGTASVVCLLNNFYPREAKVQWKVDNALQSGNSQESVTEQDSKDSTYSLSSTLTLSKADYEKHKVYACEVTHQGLSSPVTKSFNRGEA
